Source: publication PMC10668032
This is one part of the list. At the low end of the ranking, values are background and their order means little.

Each sequence was assayed against SIX1 homeodomain (reference allele) (UniProt Q15475) (assay: universal protein binding microarray). Conditions: Universal all-10-mer PBM (8x60K, AMADID 030236), 300 nM GST-tagged protein, Alexa Fluor 488 anti-GST; buffer, salt, pH and temperature not stated; high values mean tight binding; most listed sequences are background and not binding sites; double strand, one strand shown.

| Sequence | binding signal [E-score] |
| --- | --- |
| CTACAACC | -0.205 |
| CTAGAAGA | 0.115 |
| GTGCTAAA | -0.202 |
| CTATCGTA | 0.266 |
| CCGTCCCC | -0.0726 |
| GCCGTAGA | -0.00802 |
| AGGTGGGA | -0.0676 |
| CAGCGCTG | -0.216 |
| GCACACAA | -0.2 |
| CAGGACGG | -0.0904 |
| CGCACTTA | -0.182 |
| GTATCTTA | 0.312 |
| TCCTATAA | -0.00245 |
| AAGCAAGC | -0.4 |
| CTATGAGC | -0.131 |
| GGCGGGCA | -0.0717 |
| CAGAAGCG | -0.0128 |
| AGGGCCAC | -0.417 |
| GGGTTCAC | 0.127 |
| AGTCAACC | -0.123 |
| CAGAGATA | 0.27 |
| ACTCACGC | -0.203 |
| CCTACCAG | -0.139 |
| ATCGGCAC | 0.23 |
| GAGACCGA | 0.128 |

| Sequence | binding signal [E-score] |
| --- | --- |
| AGCCCCAT | -0.0405 |
| AGAAGTAG | -0.13 |
| ATATCTTC | 0.365 |
| TCGCGAGA | 0.0699 |
| AATCCCCT | 0.216 |
| AGGAAGAG | -0.0717 |
| ATCCTAAA | 0.184 |
| GGCCTCGA | -0.215 |
| AATAGATA | 0.253 |
| ATCGTTGC | 0.202 |
| ATGCTATA | 0.0549 |
| CGCGGGTA | 0.142 |
| ATGAGAAC | 0.131 |
| AAGACGGT | -0.0248 |
| TCCTACGA | -0.0614 |
| GCGGAATA | 0.0364 |
| AAGGTGGG | -0.265 |
| AATGTTGC | -0.15 |
| CACTACCA | -0.0578 |
| AACCACCT | -0.134 |
| ATACTACC | 0.23 |
| ACATCTCC | 0.101 |
| GGTCAGAC | -0.225 |
| TTCTACAA | -0.0467 |
| ACCCGCAC | 0.0488 |

| Sequence | binding signal [E-score] |
| --- | --- |
| AGAGGCTC | -0.11 |
| ACAGTGGC | -0.174 |
| ATCGCAGA | 0.203 |
| ATGTCCAA | -0.0384 |
| AAAGAACG | -0.181 |
| GATCCTAA | 0.262 |
| CTTCTGCC | -0.134 |
| ATAACATG | -0.05 |
| CGTATTAA | 0.222 |
| ACAAGGAG | 0.0908 |
| AACTACGA | -0.0463 |
| ACATTTTG | -0.156 |
| GTACCTGA | 0.138 |
| ATGTCGGC | -0.131 |
| GATCACTA | 0.371 |
| AAGGAGCA | -0.137 |
| TGTTCGAA | -0.114 |
| ACGAGATC | 0.26 |
| AGAGGACC | -0.272 |
| AAACCCTA | 0.0456 |
| CATTCACC | -0.18 |
| GAAACGGC | -0.139 |
| ACAACTCG | -0.0796 |
| ATACTCAA | 0.274 |
| CAACTTTC | -0.259 |

| Sequence | binding signal [E-score] |
| --- | --- |
| AAAAGGTT | -0.123 |
| AAACAGCG | -0.113 |
| AACTATGA | 0.00686 |
| CCTCAGGA | 0.0598 |
| CATACAAG | 0.0377 |
| CCTGAATA | 0.0703 |
| CGCGTCAC | -0.194 |
| GATACGAA | 0.335 |
| TCCAACCA | 0.0228 |
| ACGTGGAG | -0.114 |
| GCAGACCA | -0.234 |
| TCGTCACA | 0.0764 |
| AGTGGAAA | -0.245 |
| AAGAGCTA | -0.0769 |
| TCTCTCCA | 0.0854 |
| AGTAATCC | 0.126 |
| ATTGCATG | 0.156 |
| ACTAGAGA | 0.00715 |
| TATTATAA | 0.0629 |
| ATTGACCC | 0.155 |
| CCTCGTAA | -0.145 |
| AGCCGCAC | -0.0287 |
| CAACTCAG | -0.0971 |
| TGGTTTAA | -0.0477 |
| GGAGCGGA | 0.06 |

| Sequence | binding signal [E-score] |
| --- | --- |
| GCGCTTTA | -0.13 |
| ACAGGTCC | -0.125 |
| GAGGATCC | 0.366 |
| AAGGATGG | 0.00539 |
| CGAAGTCC | -0.326 |
| GCGAGAAC | -0.158 |
| CCGAGCTA | -0.0515 |
| CAGGTTCC | -0.253 |
| CGGCAGTA | 0.00713 |
| ATGCGATG | 0.0231 |
| CAACATTA | 0.0239 |
| AGATAGCC | 0.247 |
| GGGTATGA | 0.27 |
| GAAACTCC | -0.162 |
| GCCCAACC | -0.131 |
| CCTCAGCC | -0.114 |
| CCACAGAA | 0.00539 |
| ACTAACAG | -0.0739 |
| ACTGGAAC | -0.0238 |
| GAACGTAA | -0.196 |
| CTACCTAC | -0.0432 |
| ATCTTCCA | 0.196 |
| GAGTGGTA | 0.0692 |
| CTGAATCA | -0.0898 |
| AATGGAAG | -0.164 |

| Sequence | binding signal [E-score] |
| --- | --- |
| GGTACTAC | 0.00522 |
| CTCGGGGC | 0.0208 |
| CAATACTC | 0.297 |
| AACACAGA | -0.03 |
| ACGCCCGT | -0.00709 |
| ACGAACTA | -0.0513 |
| ACTAGAGG | -0.141 |
| CAACATTG | 0.0129 |
| TATGAATA | 0.147 |
| GAGAGGAA | 0.0169 |
| CAGGATGA | 0.183 |
| CTTTATAA | -0.131 |
| ATGGTCTA | -0.0839 |
| GACGAGAA | -0.169 |
| AAGGAAGC | -0.157 |
| GCCGGAGC | -0.166 |
| ACTGTTAC | -0.0513 |
| CACAAATG | -0.217 |
| GGTACTCA | 0.158 |
| CCTCGGCA | -0.0386 |
| AAACTTCG | -0.254 |
| GCAACCAA | -0.109 |
| CGATAAAC | -0.257 |
| ACTTAACG | -0.333 |
| GGCCCCGA | 0.0643 |

| Sequence | binding signal [E-score] |
| --- | --- |
| AGAAGTCA | -0.129 |
| CCAGCTGA | 0.0802 |
| GCCCCCGA | -0.165 |
| AAGATCGC | 0.211 |
| GTCACTGA | -0.0175 |
| GGATTAGA | 0.165 |
| AGACTAAT | 0.0454 |
| TCACCCAA | 0.0645 |
| ATTGGACG | -0.202 |
| AGGCGCGA | -0.0917 |
| GAATCGTC | -0.0328 |
| CCATACGG | 0.134 |
| GTGCGGGA | 0.0768 |
| GGACGTAA | -0.37 |
| CTTCCCAA | -0.133 |
| AGTAGGGG | 0.196 |
| AAGGTGAA | -0.181 |
| GGTTTCGA | 0.172 |
| CCGGTGCG | -0.063 |
| ATAGCGAC | 0.0808 |
| ACGTCGTC | -0.132 |
| GACTTTAC | -0.2 |
